From PubChem BioAssay AID743255 (National Center for Advancing Translational Sciences (NCATS), 2014)
Out of some 390,000 compounds screened, about 910 (0.23%) were called active. Another 5% or so got no clear call; they are omitted. The call rests on the fitted dose curve; in most records, active means well fitted inhibition curve with a large enough effect; inconclusive means small, poorly fitted or top-dose-only effect; inactive means no such curve, though single readings can be large or run the other way. Only a part is listed here, and it is no random draw.

Each compound was assayed against Ubiquitin carboxyl-terminal hydrolase 1 (Homo sapiens) (UniProt O94782) (assay: Inhibitors of USP1/UAF1: Primary Screen). Conditions: recombinant USP1/UAF1, Ub-Rhodamine cleavage fluorescence; activity change, negative = inhibition: at 57.1 µM (top of the series).
Procedure, shortened: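 In this screen, compounds sit with the deubiquitinase complex (1nM) for 15 min at room temperature before Ub-Rho is added at 150nM final. Fluorescence rise is then followed for 6 reads every 60 seconds.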
Further: nearly all actives have a fitted effect of over 60% in size.
On the % scale 0 is the no-effect control and ±100 the full control effect; potency means the concentration at half of the fitted maximal effect.

Chain of UniProt O94782 (O94782 whole entry, looked up): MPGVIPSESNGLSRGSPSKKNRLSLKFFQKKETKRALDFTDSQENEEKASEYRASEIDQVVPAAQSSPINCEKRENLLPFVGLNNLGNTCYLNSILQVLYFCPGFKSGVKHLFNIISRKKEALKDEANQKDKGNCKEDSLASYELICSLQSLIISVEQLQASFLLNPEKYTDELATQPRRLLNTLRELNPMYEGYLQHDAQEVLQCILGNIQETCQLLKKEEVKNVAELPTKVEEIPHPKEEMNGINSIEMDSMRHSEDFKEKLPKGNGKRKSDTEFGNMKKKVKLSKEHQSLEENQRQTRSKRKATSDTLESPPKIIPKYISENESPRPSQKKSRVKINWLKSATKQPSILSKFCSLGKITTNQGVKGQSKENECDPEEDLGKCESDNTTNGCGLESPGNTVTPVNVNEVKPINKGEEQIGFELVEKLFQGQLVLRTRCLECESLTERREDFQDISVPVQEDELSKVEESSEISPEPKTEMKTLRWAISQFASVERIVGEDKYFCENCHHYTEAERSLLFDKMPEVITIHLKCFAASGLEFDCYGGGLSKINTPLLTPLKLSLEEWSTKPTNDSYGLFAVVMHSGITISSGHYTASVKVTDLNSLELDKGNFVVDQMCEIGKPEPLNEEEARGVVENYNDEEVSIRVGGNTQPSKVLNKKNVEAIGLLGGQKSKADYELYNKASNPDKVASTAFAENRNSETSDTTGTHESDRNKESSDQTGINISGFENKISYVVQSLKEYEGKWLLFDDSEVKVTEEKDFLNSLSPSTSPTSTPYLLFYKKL

Row | Compound | activity change, negative = inhibition | Potency
1 | CCc1cccc(NC(=O)c2cccc3c2C(=O)N(C2CCCCC2)C3)c1 | inactive: -25.4% | 
2 | O=C(Nc1cccc(C(F)(F)F)c1)c1ccc2nc(-c3ccco3)c(-c3ccco3)nc2c1 |  | active: 28.2 µM
3 | CCOC(=O)Cn1c(=N)n(CCOc2ccc(OC)cc2)c2ccccc21 | inactive: -5.01% | 
4 | CN(C(=O)COC(=O)c1ccc([N+](=O)[O-])cc1N)c1ccccc1 | inactive: 37.9% | 
5 | C[C@@H]1CCC[C@@]2(O[C@@H](CCO)C[C@H](O)[C@H]2O)O1 | inactive: -20.3% | 
6 | CCOC(=O)[C@@H]1[C@H]2COc3ccccc3[C@@H]2N2C(=O)N(c3ccc(Cl)cc3)C(=O)[C@@]12C | inactive: -17.6% | 
7 | C[C@H](CO)N1C[C@H](C)[C@H](CN(C)C(=O)c2ccc3ccn(C)c3c2)OCc2cnnn2CCCC1=O | inactive: -16.2% | 
8 | Cc1cc(C)cc(NC(=O)Cn2ncn3c(cc4ccccc43)c2=O)c1 | inactive: 3.94% | 
9 | O=C(COCc1cc(-c2ccc3c(c2)OCO3)on1)N1CCN(c2cccc(Cl)c2)CC1 | inactive: -4.72% | 
10 | CCc1nonc1NC(=O)c1oc2ccc(C)cc2c1C | inactive: -3.06% | 
11 | CCN(CC)c1ccc2c(c1)oc(=O)c1c(Cl)cc(=O)oc12 | inactive: 250% | 
12 | O=C1C(Cl)=C(Nc2ccc3cn[nH]c3c2)C(=O)c2ccccc21 |  | active: 15.8 µM
13 | C[n+]1ccccc1/C=N/O | inactive: -24.7% | 
14 | COc1ccc2c(c1)cc1c(=O)n(CC(=O)NCCCOC(C)C)nc(C)n12 | inactive: -17.8% | 
15 | CCOC(=O)[C@@H]1[C@H]2COc3ccccc3[C@H]2N2C(=O)N(c3ccc(OC)cc3)C(=O)[C@]12C | inactive: -25.6% | 
16 | CC(=O)C[C@@H](O)CC(=O)[C@H]1OC(=O)CCCCCCc2ccccc21 | inactive: -4.91% | 
17 | COc1ccc(CNC(=O)O[C@@H]2C[C@H]3C(=O)N(c4ccccc4)C(=O)[C@H]3[C@@]3(CN(S(=O)(=O)c4ccc(C)cc4)C[C@H]3C)[C@@H]2O)cc1OC | inactive: 79.6% | 
18 | N#CC1=C2SCN(C3CCCCC3)CN2C(=O)CC1c1c(F)cccc1Cl (stereo not given) |  | active: 31.6 µM
19 | CCN1C(=O)[C@H]2[C@@H](c3ccc(-c4cccc(Cl)c4)c(OC)c3)N3CCCC[C@@]3(C(=O)OC)[C@H]2C1=O | inactive: -28.7% | 
20 | O=C(C[C@@H]1C/C=C\CC[C@@H](Cc2ccc(F)cc2)C(=O)OC[C@@H]2CCCN2C1=O)N[C@H](CO)Cc1ccccc1 | inactive: -5.38% | 
21 | O=C(C[C@H]1C/C=C\CC[C@H](Cc2ccc(F)cc2)C(=O)OC[C@H]2CCCN2C1=O)N[C@H](CO)Cc1ccccc1 | inactive: -14.5% | 
22 | O=C(NCc1nc2ccccc2[nH]1)C1=C[C@H](c2ccccc2)C[C@H](OCc2ccc(CO)cc2)O1 | inactive: -3.88% | 
23 | O=C(NC1(O)C(=O)c2ccccc2C1=O)c1c(Cl)cccc1Cl |  | active: 28.2 µM
24 | O=C1C=CC(=O)c2c(O)c(N3CCN(CCOCCO)CC3)c(Br)c(O)c21 |  | active: 2 µM
25 | Cc1ccc(NC(=O)c2oc3ccc(S(=O)(=O)N4CCC5(CC4)OCCO5)cc3c2C)cc1C | inactive: 0.91% | 
26 | C[C@H]1CN([C@@H](C)CO)C(=O)CCCn2nncc2CO[C@H]1CN(C)C(=O)Nc1ccc2c(c1)OCO2 | inactive: 7.95% | 
27 | O=C(NCc1ccccc1)C1CCCN(S(=O)(=O)c2cccc3nsnc23)C1 (stereo not given) | inactive: -18% | 
28 | C[n+]1ccc(/C=C/c2c[nH]c3ccc(F)cc23)cc1 |  | active: 28.2 µM

Row | Compound | activity change, negative = inhibition | Potency
29 | CCCN1C(=O)C(Cc2nc3ccccc3c(=O)n2-c2ccccc2)c2cc(C)ccc21 (stereo not given) | inactive: -2.36% | 
30 | CCOC(=O)/C=c1\s/c(=C\c2c(OC)ccc3ccccc23)c(=O)n1CC(=O)NCC1CCCO1 (stereo not given) | inactive: -8.94% | 
31 | C[C@H]1CN([C@@H](C)CO)C(=O)CCCn2nncc2CO[C@@H]1CN(C)Cc1cccc2c1OCCCO2 | inactive: -23.2% | 
32 | COc1ccc(C)cc1NS(=O)(=O)c1ccc2c(c1)n(C)c(=O)n2C | inactive: -14.6% | 
33 | COc1ccc(OC)c(S(=O)(=O)Nc2ccc3c(c2)n(C)c(=O)n3C)c1 | inactive: -20.3% | 
34 | Cc1cc(O)c(C(C)C)cc1N=Cc1ccc(N(C)C)cc1 |  | active: 31.6 µM
35 | CCNc1ccc(Br)cc(C(=O)/C=C/c2ccc(Cl)cc2)c1=O |  | active: 31.6 µM
36 | Cc1ccc(NC(=O)Cn2cc(C(=O)C3CC3)c3ccccc32)c(C)c1 | inactive: 5.12% | 
37 | CCOc1cc(/C=C2/NC(=O)NC2=O)cc([N+](=O)[O-])c1O | inactive: -1.68% | 
38 | CC1OC(CC(=O)O)CC2=C1C(=O)c1c(O)cccc1C2=O (stereo not given) |  | active: 11.2 µM
39 | CCO[C@H]1c2c(ccc3ccc(=O)oc23)OC(C)(C)[C@H]1O | inactive: -17.6% | 
40 | COc1ccc(-c2cc(C(=O)Nc3cccnc3Cl)no2)cc1OC | inactive: -5.93% | 
41 | CCN(CCCNC(=O)Cn1ncc2c([nH]c3ccc(C)cc32)c1=O)c1cccc(C)c1 | inactive: -7.65% | 
42 | COC(C[C@H]1O[C@H]1C(=O)[C@H](C)OCc1ccccc1)OC | inactive: -18.5% | 
43 | Nc1c(C(=O)N/N=C/c2ccccc2Cl)oc2nc(-c3ccccc3)cc(-c3ccco3)c12 | inactive: 73.5% | 
44 | Cc1ccc(S(=O)(=O)N2C[C@@H]3[C@H]4CC[C@H](C4)[C@@H]3[C@@H](C)[C@@H]2c2ccn(Cc3ccccc3)c2)cc1 | inactive: -9.24% | 
45 | CC1=Nc2ccccc2/C1=C/c1sc(=S)n(-c2cccc(C(=O)O)c2)c1O |  | active: 28.2 µM
46 | CCOC(=O)c1cc2c(=O)n3ccccc3nc2n(Cc2ccco2)c1=NC(=O)c1cccc(OC)c1 | inactive: 31.8% | 
47 | COc1cccc(NC(=O)N(C)C[C@@H]2OCc3cnnn3CCCC(=O)N([C@@H](C)CO)C[C@H]2C)c1 | inactive: -21% | 
48 | CCOC(=O)C1CCN(S(=O)(=O)c2ccc3c(c2)N(C)C(=O)CC(=O)N3C)CC1 | inactive: -20.9% | 
49 | CC(C)(C)OC(=O)C[C@@H]1C/C=C\C[C@@H](CC(=O)N(CCO)Cc2ccccc2)C(=O)N[C@H](C(C)(C)C)COC1=O | inactive: -25.1% | 
50 | C[C@H](NC(=O)c1[nH]cnc1C(=O)Nc1nccs1)c1ccccc1 | inactive: -16.1% | 
51 | COc1cc2c(=O)n(CCC(=O)NCC3CCCO3)c(=O)n(CC(=O)Nc3ccc(C)c(C)c3)c2cc1OC (stereo not given) | inactive: 0.414% | 
52 | COc1ccc(CCCc2nnc(SCC(=O)Nc3ccc(OC)cc3)o2)cc1 |  | inactive
53 | CCOc1ccc(NC(=O)C2CCN(c3nnc(-n4c(C)ccc4C)s3)CC2)cc1 | inactive: 32.8% | 
54 | CCOC(=O)C1CCN(S(=O)(=O)c2csc(C(N)=O)c2)CC1 | inactive: -6.01% | 
55 | C#CCNC(=O)C1=C[C@H](c2ccc(Br)cc2)[C@@H](CCCO)[C@H](OCC)O1 | inactive: -11.1% | 
